Laboratory results published in paper PMC12136788.
Some of the results follow.

B1: chr6:99998177:99998178:-_ENSG00000112237_ENST00000369220|hu_hu|motif|central (ssRNA)
RNA: GGGAGUUCUACAGUCCGACGAUCAAGGGGAAGCAACAUGUCUUCUUGGCCCAUGUCCUGCACAUACUGGAGCAAAGGUCGGUAAGGAUGAUACACUAUCAAGCAACAAUCCAUUAGUUCUAACAGAUAGAAUUCACAUUCUAACAACAGAGGAUUGAGCAUCA
B2: chr14:34206250:34206251:-_ENSMUSG00000021936_ENSMUST00000111945|mus_mus|FALSE|FALSE (ssRNA)
RNA: GGGAGUUCUACAGUCCGACGAUCUGCAGUCCUCGCCAGUCCAAAAUCAAGAAUCUUCAAAGUGCAGUCUGAUUUGACUACUAUAUUACUAGGCUUUAAGUCCCGAUGAAUAAUUCCAGCAGAGUGAAGGUGCUUGAUUCCACACAACAGAGGAUUGAGCAUCA
B3: chr5:37680062:37680063:+_ENSMUSG00000029121_ENSMUST00000031004|mus_hu|mus_mus_mus_hu_False|58_88 (ssRNA)
RNA: GGGAGUUCUACAGUCCGACGAUCUUUGGGUGUAGCUGGUACCUCGUACACAGGCCCGUCAUACAUGCCCCUGGAAACACUAUGCAAUCCAAAAACCUUAUUCCUGAUUUUGACGCGCUGGUACAGGUGCUCCGGGAACGCCUUCAACAGAGGAUUGAGCAUCA
B4: 66883379_66934788_389_5pUTR_ENSMUSG00000029207_ENSMUST00000159786|mouse|control|control (ssRNA)
RNA: GGGAGUUCUACAGUCCGACGAUCCCCAAGGACUCCAGAAACAGAGAGAGGGCUAGCUGGGCGCACUUAAGUCAGCAGGUGGGAAUCAGCUCUUCACAAGAGCUUUCUUUUAUGGAUUUUCCAUCCGGCAAAGGAUUCUAUUCCCAACAGAGGAUUGAGCAUCA
B5: chr6:24533737:24533738:+_ENSG00000112294_ENST00000357578|hu_hu|motif|central (ssRNA)
RNA: GGGAGUUCUACAGUCCGACGAUCCAGCUGCUCUGCCACUCUCCAGAUCUGGGCUGGGUCUUGAGAGUAAAAAUAACCUGCGGACCCAACAUCAGCUGCGUUAGCGAUUGCUAUAGCCUCCUCCUCUGUAUCGAACUUGAUAACCAACAGAGGAUUGAGCAUCA
B6: chr16:94651144:94651145:+_ENSMUSG00000040785_ENSMUST00000117648|mus_hu|mus_mus_mus_hu_True|18_68 (ssRNA)
RNA: GGGAGUUCUACAGUCCGACGAUCAUUUUCUUGAAUCAAGUGGCGAAUAACAUAGUCCACUGCUUCAUGGACAAAAUUUCUGCUAGAAAAACAGGUUGUAUAGUCUUCUGUGCUCAAAACCUUCCAAGAAAGCAAUUCUUUGAGCAACAGAGGAUUGAGCAUCA

biological target: T1, UNK ZnF1-3 (human, UniProt Q9C0B0 31-174); test: nsRBNS (natural sequence RNA bind-n-seq); RBNS binding buffer (assumed for nsRBNS): 25 mM Tris pH 7.5, 150 mM KCl, 3 mM MgCl2, 0.01% Triton X-100, 500 ug/ml BSA, 20 U/ml SUPERase-In, 4 C; UNK is unkempt and MSI1 is Musashi-1; names of the RNAs are library labels; protein concentration not given here; high values mean tight binding
T1 sequence: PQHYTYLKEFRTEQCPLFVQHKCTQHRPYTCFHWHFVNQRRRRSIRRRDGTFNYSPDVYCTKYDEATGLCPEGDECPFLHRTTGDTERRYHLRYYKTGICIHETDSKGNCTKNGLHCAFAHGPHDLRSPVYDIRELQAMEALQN

In order of falling binding signal:
1. B5  1.01 enrichment R
2. B4  0.981 enrichment R
3. B1  0.878 enrichment R
4. B2  0.856 enrichment R
5. B3  0.632 enrichment R
6. B6  0.627 enrichment R
